The source of these data is ChEMBL document CHEMBL4888484, “Replenishing the malaria drug discovery pipeline: Screening and hit evaluation of the MMV Hit Generation Library 1 (HGL1) against asexual blood stage Plasmodium falciparum ,using a nano luciferase reporter read-out” (2022).

Structures are written as SMILES. The campaign covered roughly 150,000 compounds. About 540 (0.36%) showed an effect of 50% or more. Some of the results follow.

The test system of the experiment is Plasmodium falciparum. Kind of experiment: Primary screen in NF54 nanoGlo assay, in single point, at 2uM, 72h; a lower Z score goes with more inhibition. The experiment is classed as functional, Erythrocyte. The settings on record: timepoint 72 hour.
Usually % Inhibition stands for the drop in the measured response relative to a control, in per cent. As to `Cc1nn(CC(=O)NCCC2=CCCCC2)c(=O)n1C`, the “% Inhibition” value is -3% and the Z score is on record as 0.39.

Turning to `C[C@@]12CCCN1C(=O)[C@@H](c1ccc(O)cc1)NC2=O`, the “% Inhibition” value is recorded as -10% and the Z score is 1.62.

Consider `COc1ccc(-c2n[nH]c3c2C(=O)C[C@@H](c2ccccc2)C3)cc1`, for which the “% Inhibition” value is -5% and the Z score is listed as 0.48.

As to `CO[C@H]1CCN(C(=O)c2ccc3ncccc3c2)C1`, the “% Inhibition” value was -19% and the Z score came to 1.89.

For `COCCc1noc(-c2cnc3nc(C)ccc3c2NCc2ccco2)n1`, the “% Inhibition” value was -18% and the Z score amounted to 2.21.

As for `Cn1ccnc(Nc2cccc(NC3CCCC3)c2)c1=O`, the “% Inhibition” value is on record as -8% and the Z score turned out to be 1.15.

Regarding `c1cncc(CN(Cc2ccc3c(c2)OCO3)Cc2ccc([C@@H]3CCCO3)s2)c1`, the “% Inhibition” value is given as -2% and the Z score is 0.32.

Consider `C[C@H]1CN(C)CCN1CC1CCN(C(=O)Nc2cccs2)CC1`, for which the “% Inhibition” value is -2% and the Z score stood at 0.44.

In the case of `Cc1ccc(-c2noc(C3CCN(C(=O)OC(C)(C)C)CC3)n2)cc1C`, the “% Inhibition” value was found to be 30% and the Z score is recorded as -3.35.

`O=C(CCc1ccc2c(c1)CN(C(=O)c1ccco1)CCO2)N1CCOCC1`: the “% Inhibition” value came out at 8% and the Z score is -0.97.

For the molecule `CCOc1nccn2c(CNC(=O)c3c(F)cccc3F)nnc12`, the “% Inhibition” value was determined as 14% and the Z score was -1.78.

Take `Cc1ccc(CN2CCCn3nc(C(=O)NC4CCCCCC4)cc3C2=O)cc1`: the “% Inhibition” value is reported as -4% and the Z score came out at 0.79.

Regarding `Cc1cc(CNC(=O)Cc2cccnc2)ccc1N(C)C`, the “% Inhibition” value was -7% and the Z score is given as 0.87.

Consider `O=C(CCc1ccccc1)Nc1c(C(=O)c2ccc3c(c2)OCO3)oc2ccccc12`, for which the “% Inhibition” value is -1% and the Z score was determined as 0.17.

With `Cn1nc(NC(=O)NC[C@@H]2CCC[C@H]2O)cc1OC(F)F`, the “% Inhibition” value is listed as -5% and the Z score was found to be 0.63.

Turning to `C[C@H]1CCC(=O)N1c1cccc(NC(=O)c2cncs2)c1`, the “% Inhibition” value was -18% and the Z score turned out to be 1.63.

Take `Cn1ccc(CNC(=O)N2CCC[C@]2(C)Cc2ccc(OC(F)(F)F)cc2)n1`: the “% Inhibition” value is on record as -8% and the Z score was determined as 1.68.

In the case of `CC(C)c1ocnc1C(=O)NC[C@H]1[C@H](c2ccccc2)C1(F)F`, the “% Inhibition” value is -3% and the Z score worked out at 0.47.

Turning to `CC(=O)c1c[nH]c(C(=O)N2CCCN(C(=O)c3ccc(F)cc3)CC2)c1`, the “% Inhibition” value is -6% and the Z score is given as 0.83.

In the case of `COC(=O)C[C@H]1CCCN(CC(=O)N(C)Cc2ccc(F)cc2)CC1`, the “% Inhibition” value is reported as -5% and the Z score came out at 0.93.

`CN(C)c1ccnc(NC(=O)Cc2ccc(O)cc2)c1`: the “% Inhibition” value is reported as 3% and the Z score is given as -0.53.

Consider `O=C(NCCCCNc1ccccn1)c1ccc2c(c1)OCCO2`, for which the “% Inhibition” value is reported as -9% and the Z score is 1.57.

Consider `O=C1CCN(c2ccnc(C(=O)NCc3ccc(F)cc3)c2)CCN1`, for which the “% Inhibition” value is reported as 6% and the Z score is recorded as -1.01.

`Cc1ccc(CN(C)C(=O)c2scnc2C)o1`: the “% Inhibition” value was -7% and the Z score worked out at 1.13.

`O=C(COc1ncccn1)NCCc1ccccc1`: the “% Inhibition” value is given as 2% and the Z score is reported as -0.38.

Take `Cc1ccc(C(=O)N[C@H]2CCCOc3c2ccc2ccccc32)c(=O)[nH]1`: the “% Inhibition” value was -11% and the Z score worked out at 1.39.

Regarding `O=C(Cc1ccncc1)N1CCC(N2CCc3ccccc3C2)CC1`, the “% Inhibition” value is on record as -8% and the Z score is 1.22.

In the case of `O=C(COc1ccc(F)cc1)N[C@H]1CCN(Cc2cscn2)C[C@@H]1O`, the “% Inhibition” value is listed as -12% and the Z score is on record as 2.02.

For the molecule `COCCCn1c(C)cc(C(=O)N2CCCn3nc(-c4cccc(F)c4)cc3C2)c1C`, the “% Inhibition” value is on record as -7% and the Z score was 0.61.

On to `CC(C)[C@H](Nc1nccc(C(F)(F)F)n1)C(N)=O`, for which the “% Inhibition” value is given as -5% and the Z score came to 0.79.

Turning to `O=C(Nc1ccc2[nH]c(=O)[nH]c2c1)c1cc2c(s1)CCCCC2`, the “% Inhibition” value was -10% and the Z score was found to be 0.92.

As for `CC(O)c1cccc(NC(=O)c2cnn3c2N[C@@H](c2ccccc2)C[C@H]3C(F)(F)F)c1` (some centres undefined), the “% Inhibition” value was -14% and the Z score worked out at 2.46.

Take `CCCCN(C(=O)Nc1nc2ccccc2s1)C1CC1`: the “% Inhibition” value is -5% and the Z score came to 0.64.

As for `Cc1cc(C(=O)N2CC[C@H](C(F)(F)F)C2)c(C)n1-c1ccon1`, the “% Inhibition” value is -2% and the Z score came out at 0.24.

As for `CO[C@H]1COCC[C@@H]1NC(=O)C(C)(C)Oc1cc(C)ccc1C(C)C`, the “% Inhibition” value is listed as -13% and the Z score came to 1.32.

As to `COc1cc(-n2cnnn2)ccc1NC(=O)c1cnc(C)cn1`, the “% Inhibition” value is 5% and the Z score is given as -0.84.

With `Cc1ccc(-c2nn(-c3ccccc3)cc2C(=O)N2CCCc3ccccc32)o1`, the “% Inhibition” value is -4% and the Z score is reported as 0.63.

As to `COc1cc2c(cc1OC)CN(C(=O)CN(C)CC(=O)Nc1ccc(C)cn1)CC2`, the “% Inhibition” value is recorded as -4% and the Z score is recorded as 0.66.

For `Cn1cncc1[C@H]1[C@H](NC(=O)Cn2cccn2)CCC(=O)N1C1CC1`, the “% Inhibition” value is recorded as -1% and the Z score turned out to be 0.22.

`COc1cc2c(cc1OC)CN(C(=O)c1c[nH]c(=O)n(C)c1=O)CC2`: the “% Inhibition” value was found to be 4% and the Z score is -0.77.

On to `COC(=O)[C@@H]1CCCCN1Cc1nc(C(F)(F)F)cs1`, for which the “% Inhibition” value is on record as 7% and the Z score was -1.16.

On to `C#CCCC1(CCC(=O)N2CCOc3c(C)cc(C)cc32)N=N1`, for which the “% Inhibition” value is -12% and the Z score is on record as 1.44.
